# Assay results as given in the supplement of paper PMC8728848.
# The list shows a part of the results.
# Tests used:
# Test in all cases: glycan array binding signal (z-score within array); higher = stronger binding
# Conditions in all cases: glycan notation: IUPAC condensed, linker removed
# [1] = molecular target: Neu5Ac(a2-3)Gal(b1-4)GlcNAc(b1-6)GalNAc
# Summary of the method: (§1)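 The binding signal is a Z-score computed within each array. Data were drawn from 3228 arrays in the Consortium for Functional Glycomics database, restricted to those with a known protein sequence. Scores were averaged over arrays of the same protein sequence at different concentrations or buffers, and over linkers, and negative values can be taken as non-binding.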
# [2] = molecular target: Neu5Ac(a2-3)Gal(b1-4)GlcNAc(b1-6)[Gal(b1-3)]GalNAc
# Summary of the method: as §1
# [3] = molecular target: Neu5Ac(a2-3)Gal(b1-4)GlcNAc(b1-6)[Neu5Ac(a2-3)Gal(b1-3)]GalNAc
# Summary of the method: as §1
# [4] = molecular target: Neu5Ac(a2-3)Gal(b1-4)GlcNAc6S
# Summary of the method: as §1
# [5] = molecular target: Neu5Ac(a2-3)Gal(b1-4)[Fuc(a1-3)]GlcNAc
# Summary of the method: as §1
# [6] = molecular target: Neu5Ac(a2-3)Gal(b1-4)[Fuc(a1-3)]GlcNAc(b1-2)Man
# Summary of the method: as §1
# [7] = molecular target: Neu5Ac(a2-3)Gal(b1-4)[Fuc(a1-3)]GlcNAc(b1-3)Gal
# Summary of the method: as §1
# [8] = molecular target: Neu5Ac(a2-3)Gal(b1-4)[Fuc(a1-3)]GlcNAc(b1-3)Gal(b1-4)GlcNAc
# Summary of the method: as §1
# [9] = molecular target: Neu5Ac(a2-3)Gal(b1-4)[Fuc(a1-3)]GlcNAc(b1-3)Gal(b1-4)[Fuc(a1-3)]GlcNAc(b1-3)Gal(b1-4)[Fuc(a1-3)]GlcNAc
# Summary of the method: as §1
# [10] = molecular target: Neu5Ac(a2-3)Gal(b1-4)[Fuc(a1-3)]GlcNAc(b1-3)GalNAc
# Summary of the method: as §1
# [11] = molecular target: Neu5Ac(a2-3)Gal(b1-4)[Fuc(a1-3)]GlcNAc(b1-6)[Gal(b1-3)]GalNAc
# Summary of the method: as §1
# [12] = molecular target: Neu5Ac(a2-3)Gal(b1-4)[Fuc(a1-3)]GlcNAc(b1-6)[Neu5Ac(a2-3)Gal(b1-3)]GalNAc
# Summary of the method: as §1
# [13] = molecular target: Neu5Ac(a2-3)Gal(b1-4)[Fuc(a1-3)]GlcNAc6S
# Summary of the method: as §1
# [14] = molecular target: Neu5Ac(a2-3)Gal6S(b1-4)GlcNAc
# Summary of the method: as §1
# [15] = molecular target: Neu5Ac(a2-3)Gal6S(b1-4)[Fuc(a1-3)]GlcNAc
# Summary of the method: as §1
# [16] = molecular target: Neu5Ac(a2-3)GalNAc
# Summary of the method: as §1
# [17] = molecular target: Neu5Ac(a2-3)GalNAc(b1-4)GlcNAc
# Summary of the method: as §1
# [18] = molecular target: Neu5Ac(a2-3)[GalNAc(b1-4)]Gal(b1-4)Glc
# Summary of the method: as §1
# [19] = molecular target: Neu5Ac(a2-3)[GalNAc(b1-4)]Gal(b1-4)GlcNAc
# Summary of the method: as §1
# [20] = molecular target: Neu5Ac(a2-3)[GalNAc(b1-4)]Gal(b1-4)GlcNAc(b1-3)GalNAc
# Summary of the method: as §1
# [21] = molecular target: Neu5Ac(a2-3)[Neu5Ac(a2-6)]GalNAc
# Summary of the method: as §1
# [22] = molecular target: Neu5Ac(a2-6)Gal
# Summary of the method: as §1
# [23] = molecular target: Neu5Ac(a2-6)Gal(b1-3)GlcNAc(b1-3)[Gal(b1-4)GlcNAc(b1-6)]Gal(b1-4)Glc
# Summary of the method: as §1
# [24] = molecular target: Neu5Ac(a2-6)Gal(b1-4)Glc
# Summary of the method: as §1
# [25] = molecular target: Neu5Ac(a2-6)Gal(b1-4)GlcNAc
# Summary of the method: as §1
# [26] = molecular target: Neu5Ac(a2-6)Gal(b1-4)GlcNAc(b1-2)Man
# Summary of the method: as §1
# [27] = molecular target: Neu5Ac(a2-6)Gal(b1-4)GlcNAc(b1-2)Man(a1-3)Man(b1-4)GlcNAc(b1-4)GlcNAc
# Summary of the method: as §1
# [28] = molecular target: Neu5Ac(a2-6)Gal(b1-4)GlcNAc(b1-2)Man(a1-3)[Gal(b1-4)GlcNAc(b1-2)Man(a1-6)]Man(b1-4)GlcNAc(b1-4)GlcNAc
# Summary of the method: as §1
# [29] = molecular target: Neu5Ac(a2-6)Gal(b1-4)GlcNAc(b1-2)Man(a1-3)[GlcNAc(b1-2)Man(a1-6)]Man(b1-4)GlcNAc(b1-4)GlcNAc
# Summary of the method: as §1
# [30] = molecular target: Neu5Ac(a2-6)Gal(b1-4)GlcNAc(b1-2)Man(a1-3)[GlcNAc(b1-4)][Neu5Ac(a2-6)Gal(b1-4)GlcNAc(b1-2)Man(a1-6)]Man(b1-4)GlcNAc(b1-4)GlcNAc
# Summary of the method: as §1
# [31] = molecular target: Neu5Ac(a2-6)Gal(b1-4)GlcNAc(b1-2)Man(a1-3)[Man(a1-6)]Man(b1-4)GlcNAc(b1-4)GlcNAc
# Summary of the method: as §1
binder,measurement,setting,value
"Langerin K313I (Homo sapiens), Q9UJ71 (protein) STLNAQIPELKSDLEKASALNTKIRALQGSLENMSKLLKRQNDILQVVSQGWKYFKGNFYYFSLIPKTWYSAEQFCVSRNSHLTSVTSESEQEFLYKTAGGLIYWIGLTKAGMEGDWSWVDDTPFNKVQSARFWIPGEPNNAGNNEHCGNIKAPSLQAWNDAPCDITFLFICKRPYVPSEP",glycan array binding signal (z-score),[1],-0.217
same,glycan array binding signal (z-score),[2],-0.214
same,glycan array binding signal (z-score),[3],-0.303
same,glycan array binding signal (z-score),[4],-0.389
same,glycan array binding signal (z-score),[5],-0.288
same,glycan array binding signal (z-score),[6],-0.146
same,glycan array binding signal (z-score),[7],-0.372
same,glycan array binding signal (z-score),[8],0.11
same,glycan array binding signal (z-score),[9],-0.162
same,glycan array binding signal (z-score),[10],0.036
same,glycan array binding signal (z-score),[11],0.225
same,glycan array binding signal (z-score),[12],0.428
same,glycan array binding signal (z-score),[13],-0.341
same,glycan array binding signal (z-score),[14],-0.374
same,glycan array binding signal (z-score),[15],-0.392
same,glycan array binding signal (z-score),[16],-0.39
same,glycan array binding signal (z-score),[17],-0.359
same,glycan array binding signal (z-score),[18],-0.338
same,glycan array binding signal (z-score),[19],-0.302
same,glycan array binding signal (z-score),[20],-0.108
same,glycan array binding signal (z-score),[21],-0.372
same,glycan array binding signal (z-score),[22],-0.081
same,glycan array binding signal (z-score),[23],-0.25
same,glycan array binding signal (z-score),[24],-0.278
same,glycan array binding signal (z-score),[25],-0.34
same,glycan array binding signal (z-score),[26],-0.233
same,glycan array binding signal (z-score),[27],-0.322
same,glycan array binding signal (z-score),[28],-0.376
same,glycan array binding signal (z-score),[29],-0.353
same,glycan array binding signal (z-score),[30],-0.32
same,glycan array binding signal (z-score),[31],-0.333
